Results on 25 compounds are retold here after the supplement of paper PMC4604168 (melanoma cell lines).

The list shows a part of the results. Many values rest on one well or one pass, so single values are uncertain.
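Note: cell number obtained by counting DAPI-stained nuclei in high-throughput microscope images with image analysis software, screen run in 1,536-well plates.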

The test system of this assay is C32. Briefly: cell count relative to DMSO control; melanoma cells; higher = more viable cells. As to conditions: library dose: low library concentration; 72 h.
Take `COCC[n+]1c2c(n(Cc3cnccn3)c1C)C(=O)c1ccccc1C2=O` + O=C(CCCCCCC(=O)Nc1ccccc1)NO [vorinostat] (first compound 0.0004 µM, partner dose 0.08 µM): the cell count came out at 104%.
The same measure for `OCc1c[nH]c2ccccc12` [Indole-3-carbinol] + Cn1c(Nc2ccc(C(F)(F)F)cc2)nc2cc(Oc3ccnc(-c4ncc(C(F)(F)F)[nH]4)c3)ccc21 [CHIR265] (first compound 0.8 µM, partner dose 0.08 µM): 97%; for `COCC[n+]1c2c(n(Cc3cnccn3)c1C)C(=O)c1ccccc1C2=O` + Nc1cccc2c1CN(C1CCC(=O)NC1=O)C2=O [lenalidomide] (first compound 0.0004 µM, partner dose 1 µM): 102%; for `COCC[n+]1c2c(n(Cc3cnccn3)c1C)C(=O)c1ccccc1C2=O` + Cn1nnc2c(C(N)=O)ncn2c1=O [temozolomide] (first compound 0.0004 µM, partner dose 2 µM): 94.6%.
`Clc1ccc(Nc2nnc(Cc3ccncc3)c3ccccc23)cc1` [vatalanib] + COc1ccc(Cl)c(Nc2nc3ccccc3nc2NS(=O)(=O)c2cccc(NC(=O)C(C)(C)N)c2)c1 [XL147] (first compound 2 µM, partner dose 0.8 µM): the cell count turned out to be 84.1%.
The same measure for `Cn1c(Nc2ccc(C(F)(F)F)cc2)nc2cc(Oc3ccnc(-c4ncc(C(F)(F)F)[nH]4)c3)ccc21` + C[C@@H]1CCN(C(=O)CC#N)C[C@@H]1N(C)c1ncnc2[nH]ccc12 [CP690550] (first compound 0.08 µM, partner dose 1 µM): 96.7%; for `Clc1ccc(Nc2nnc(Cc3ccncc3)c3ccccc23)cc1` [vatalanib] + Cc1nc(Nc2ncc(C(=O)Nc3c(C)cccc3Cl)s2)cc(N2CCN(CCO)CC2)n1 [dasatanib] (first compound 2 µM, partner dose 0.004 µM): 80.7%.
On to `C#Cc1cccc(Nc2ncnc3cc(OCCOC)c(OCCOC)cc23)c1` [erlotinib] + Nc1cccc2c1CN(C1CCC(=O)NC1=O)C2=O [lenalidomide] (first compound 0.8 µM, partner dose 1 µM), for which the cell count stood at 116%.
The same measure for `Clc1ccc(Nc2nnc(Cc3ccncc3)c3ccccc23)cc1` [vatalanib] + Cn1nnc2c(C(N)=O)ncn2c1=O [temozolomide] (first compound 2 µM, partner dose 2 µM): 96.1%; for `Clc1ccc(Nc2nnc(Cc3ccncc3)c3ccccc23)cc1` [vatalanib] + C[C@]1(c2nc3c(C(N)=O)cccc3[nH]2)CCCN1 [Veliparib] (first compound 2 µM, partner dose 1.4 µM): 101%.
The same measure for `C#Cc1cccc(Nc2ncnc3cc(OCCOC)c(OCCOC)cc23)c1` [erlotinib] + C[C@]1(c2nc3c(C(N)=O)cccc3[nH]2)CCCN1 [Veliparib] (first compound 0.8 µM, partner dose 1.4 µM): 98.5%.
As for `OCc1c[nH]c2ccccc12` [Indole-3-carbinol] + Cn1nnc2c(C(N)=O)ncn2c1=O [temozolomide] (first compound 0.8 µM, partner dose 2 µM), the figure is 84%.
As to `Cn1c(Nc2ccc(C(F)(F)F)cc2)nc2cc(Oc3ccnc(-c4ncc(C(F)(F)F)[nH]4)c3)ccc21` + Nc1cccc2c1CN(C1CCC(=O)NC1=O)C2=O [lenalidomide] (first compound 0.08 µM, partner dose 1 µM), the cell count came out at 92.3%.
As for `Nc1cccc2c1CN(C1CCC(=O)NC1=O)C2=O` (stereo not given) [lenalidomide] + Cn1nnc2c(C(N)=O)ncn2c1=O [temozolomide] (first compound 1 µM, partner dose 2 µM), the figure is 101%.
As for `O=C(CCCCCCC(=O)Nc1ccccc1)NO` [vorinostat] + COc1cc(Nc2ncc(F)c(Nc3ccc4c(n3)NC(=O)C(C)(C)O4)n2)cc(OC)c1OC [Tamatinib] (first compound 0.08 µM, partner dose 0.4 µM), the figure is 88.8%; as for `Cn1c(Nc2ccc(C(F)(F)F)cc2)nc2cc(Oc3ccnc(-c4ncc(C(F)(F)F)[nH]4)c3)ccc21` + Cn1cncc1[C@@](N)(c1ccc(Cl)cc1)c1ccc2c(c1)c(-c1cccc(Cl)c1)cc(=O)n2C [tipifarnib] (first compound 0.08 µM, partner dose 0.01 µM), 84%; as for `C#Cc1cccc(Nc2ncnc3cc(OCCOC)c(OCCOC)cc23)c1` [erlotinib] + Cn1c(Nc2ccc(C(F)(F)F)cc2)nc2cc(Oc3ccnc(-c4ncc(C(F)(F)F)[nH]4)c3)ccc21 [CHIR265] (first compound 0.8 µM, partner dose 0.08 µM), 96.3%.
As for `Clc1ccc(Nc2nnc(Cc3ccncc3)c3ccccc23)cc1` [vatalanib] + C#Cc1cccc(Nc2ncnc3cc(OCCOC)c(OCCOC)cc23)c1 [erlotinib] (first compound 2 µM, partner dose 0.8 µM), the cell count stood at 105%.
The same measure for `OCc1c[nH]c2ccccc12` [Indole-3-carbinol] + Nc1cccc2c1CN(C1CCC(=O)NC1=O)C2=O [lenalidomide] (first compound 0.8 µM, partner dose 1 µM): 101%.
The compound `Clc1ccc(Nc2nnc(Cc3ccncc3)c3ccccc23)cc1` [vatalanib] + Cn1c(Nc2ccc(C(F)(F)F)cc2)nc2cc(Oc3ccnc(-c4ncc(C(F)(F)F)[nH]4)c3)ccc21 [CHIR265] (first compound 2 µM, partner dose 0.08 µM) came in with a cell count of 87.2%.
As for `Cn1c(Nc2ccc(C(F)(F)F)cc2)nc2cc(Oc3ccnc(-c4ncc(C(F)(F)F)[nH]4)c3)ccc21` + C[C@]1(c2nc3c(C(N)=O)cccc3[nH]2)CCCN1 [Veliparib] (first compound 0.08 µM, partner dose 1.4 µM), the figure is 70.3%; as for `OCc1c[nH]c2ccccc12` [Indole-3-carbinol] + Cc1nc(Nc2ncc(C(=O)Nc3c(C)cccc3Cl)s2)cc(N2CCN(CCO)CC2)n1 [dasatanib] (first compound 0.8 µM, partner dose 0.004 µM), 83.2%.
The same measure for `Cn1c(Nc2ccc(C(F)(F)F)cc2)nc2cc(Oc3ccnc(-c4ncc(C(F)(F)F)[nH]4)c3)ccc21` + COCC[n+]1c2c(n(Cc3cnccn3)c1C)C(=O)c1ccccc1C2=O [YM155] (first compound 0.08 µM, partner dose 0.0004 µM): 79.7%.
Turning to `Clc1ccc(Nc2nnc(Cc3ccncc3)c3ccccc23)cc1` [vatalanib] + C=CCn1c(=O)c2cnc(Nc3ccc(N4CCN(C)CC4)cc3)nc2n1-c1cccc(C(C)(C)O)n1 [MK1775] (first compound 2 µM, partner dose 0.02 µM), the cell count amounted to 95%.
In turn, `Clc1ccc(Nc2nnc(Cc3ccncc3)c3ccccc23)cc1` [vatalanib] + Nc1cccc2c1CN(C1CCC(=O)NC1=O)C2=O [lenalidomide] (first compound 2 µM, partner dose 1 µM) yielded a cell count of 106%.
